Source: PubChem BioAssay AID1468 (National Center for Advancing Translational Sciences (NCATS), 2008)
Where “and” joins values, the source holds several entries; their conditions need not be identical. Equal entries are not always repeated. Among all 280,000 compounds or so, about 1,100 (0.39%) were called active. Inconclusive results, whose numbers are uncertain, are shown with a selection of clear calls. Calls follow the shape of the dose curve; as a rule, active = well fitted inhibition curve with a large enough effect; inconclusive = small, poorly fitted or top-dose-only effect, or effect the other way; inactive = flat fitted curve, though single readings scatter. Potencies beside an inconclusive call are fits to weak or partial responses and may not hold up.

Each compound was assayed against Microtubule-associated protein tau (Homo sapiens) (UniProt P10636) (assay: qHTS for Inhibitors of Tau Fibril Formation, Fluorescence Polarization). Settings: K18 P301L tau heparin fibrillization, Alexa594 FP, 6 h; series mostly up to 57.7 µM.
UniProt P10636, sequence (P10636 whole entry, looked up): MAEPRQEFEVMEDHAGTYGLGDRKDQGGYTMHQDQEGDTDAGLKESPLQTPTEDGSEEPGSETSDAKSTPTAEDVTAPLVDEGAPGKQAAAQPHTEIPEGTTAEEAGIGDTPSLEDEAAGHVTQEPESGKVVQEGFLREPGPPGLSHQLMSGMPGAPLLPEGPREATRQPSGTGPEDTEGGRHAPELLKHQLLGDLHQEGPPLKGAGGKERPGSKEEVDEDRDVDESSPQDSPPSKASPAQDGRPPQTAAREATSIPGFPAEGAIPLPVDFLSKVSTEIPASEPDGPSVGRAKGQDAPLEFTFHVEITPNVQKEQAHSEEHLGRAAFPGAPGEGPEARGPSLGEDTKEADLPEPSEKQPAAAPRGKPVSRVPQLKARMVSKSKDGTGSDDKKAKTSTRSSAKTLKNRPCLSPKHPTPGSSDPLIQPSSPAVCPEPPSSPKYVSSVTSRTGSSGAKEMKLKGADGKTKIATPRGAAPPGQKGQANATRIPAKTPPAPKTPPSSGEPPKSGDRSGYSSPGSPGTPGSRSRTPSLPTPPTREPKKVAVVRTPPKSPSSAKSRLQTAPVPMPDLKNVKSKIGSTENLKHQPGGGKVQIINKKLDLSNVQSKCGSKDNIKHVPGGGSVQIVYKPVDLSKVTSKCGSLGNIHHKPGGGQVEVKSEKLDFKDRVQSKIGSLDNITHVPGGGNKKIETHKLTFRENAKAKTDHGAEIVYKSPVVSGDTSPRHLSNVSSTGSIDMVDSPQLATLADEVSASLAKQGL
Summary of the method: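 Recombinant K18 P301L […], labeled with Alexa 594 at 0.24 uM over 15 uM unlabeled; heparin inducer 20 uM final; 37 C, 6 hr; FP endpoint.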
Also: nearly all actives have a fitted effect of over 55% in size.
Potency is read from the fitted curve at half-maximal effect; tags tell the direction and shape of the fitted curve.

Potency, inactive:
O=C(COC(=O)Cc1n[nH]c(=O)c2ccccc12)Nc1ccc(Cl)cc1F
C=CCn1c(COc2ccc(Cl)cc2)nnc1SCC(=O)N/N=C/c1cccc(O)c1
C=C(C)CNC(=S)N/N=C/c1c(F)cccc1F
CCN(CC)c1ccc(/C=N/Nc2nc(C)cc(=O)[nH]2)c(O)c1
COc1ccc(CCN2CC(C(=O)NCc3ccc(F)cc3)CC2=O)cc1OC (stereo not given)
Cc1cc(SCC(=O)NC(=O)NCc2ccco2)nc2ccccc12
O=C(NCc1ccccn1)/C(=N/O)c1ccccc1
O=C(Nc1nn[nH]n1)c1cc(-c2ccc(Cl)c(Cl)c2Cl)nc2ccccc12
CCOC(=O)c1c(NC(=O)COC(=O)Cn2cnc3ccccc32)sc2c1CCC(C)C2 (stereo not given)
CCN(Cc1ccccc1)C(=O)Cn1c(=O)n(-c2ccc(C)c(C)c2)c(=O)c2c(C)c(C)sc21
N[C@@H](Cc1cc(-c2ccc(Cl)cc2Cl)cc(CP(=O)(O)O)c1O)C(=O)O
CCOC(=O)c1sc(S(C)(=O)=O)c2c1CCc1conc1-2
N#CCSc1nc2ccccc2c(=O)n1CCCC(=O)NCc1ccco1
CCC(=O)N[C@@H]1CC(C(C)(C)NC(=O)CC)CC=C1C (stereo not given in full)
Cc1ccc(NC(=O)c2sc3nc4c(cc3c2N)CN(Cc2ccccc2)CC4)cc1
Cc1cccc(NS(=O)(=O)c2ccc3c(c2)C(C)(C)C(=O)N3C)c1
OC(CNCCCCNCC(O)C(F)(F)F)C(F)(F)F (stereo not given)
COc1cccc([C@@H]2Oc3ccc(Br)cc3C(=O)[C@H]2OC(=O)NS(=O)(=O)c2ccc(C)cc2)c1
CCCNC(=O)c1nc(C)n(-c2cc(Cl)ccc2Cl)n1
Cc1[nH]c(=O)[nH]c(=O)c1/C=N/NC(=O)[C@@H](NC(=O)OC(C)(C)C)C(C)C

Potency, inconclusive:
Cc1ccc(C)c(NC(=O)c2cc(S(=O)(=O)N3CCCCCC3)ccc2F)c1 3.55 µM [inhibitor, single point]
Cc1cccnc1NC(=S)Nc1ccc(Cl)c(Cl)c1 31.6 µM [inhibitor, single point]
Nn1cnnc1N/N=C\c1ccc(-c2ccccc2[N+](=O)[O-])o1 7.08 µM [inhibitor, partial curve]
CCOc1ccccc1CN1CCC(O)CC1 17.8 µM [inhibitor, partial curve]
CC1=C(C(=O)Nc2nc3ccccc3s2)C(c2ccco2)C(C#N)=C(SCC(=O)NC2CCCCC2)N1 (stereo not given) 28.2 µM [inhibitor, partial curve, poor fit]
CCN(CC)S(=O)(=O)c1ccc2c(c1)nc(CCC(=O)Nc1ccc3c(c1)OCO3)n2CC 10 µM [activator, partial curve]
COc1ccc(-n2ncc3c(Nc4cccc(C)c4)ncnc32)cc1 15.8 µM [inhibitor, partial curve]
Cc1ccc(NC(=O)CSc2nc(-c3ccco3)cc(C(F)(F)F)n2)cc1 2.24 µM [inhibitor, partial curve, poor fit]
COC(=O)c1ccc(C2C(C(=O)Nc3ccccc3)=C(C)Nc3nc4ccccc4n32)cc1 (stereo not given) 44.7 µM [activator, single point]
CCCC1Nc2ccc(C(=O)O)cc2C2C=CCC12 (stereo not given) 39.8 µM [inhibitor, single point]
Cc1cc(SCC(=O)Nc2ccccc2)n2ncc(-c3ccccc3)c2n1 12.6 µM [inhibitor, partial curve]
CCN(CC)c1ccc(NC(=O)CSc2nc(-c3cccs3)cc(C(F)(F)F)n2)cc1 3.16 µM [activator, full curve]
CC1=C(C(=O)Nc2ccc(C)cc2C)C(c2cccs2)n2nc(SCc3ccccc3Cl)nc2N1 (stereo not given) 22.4 µM [inhibitor, single point]
COc1ccc(C(=O)Oc2cc(/C=N/NS(=O)(=O)c3ccc(C)cc3)ccc2OC)cc1 17.8 µM [inhibitor, partial curve]
CCOC(=O)c1cc(-c2ccccc2)sc1NC(=O)C(C)N1C(=O)c2ccccc2C1=O (stereo not given) 28.2 µM [inhibitor, single point]
CCOC(=O)C1=C(O)/C(=C\c2ccc(OC)c(OC)c2)N=C1C 2.24 µM [inhibitor, partial curve]
COc1cccc(N2CCN(C(=O)Cn3c(-c4cccs4)cc4ccccc43)CC2)c1 3.98 µM [activator, partial curve, poor fit]
Cc1ccc(CS(=O)(=O)Cc2ccc(C(=O)NCc3ccccn3)o2)cc1 12.6 µM [inhibitor, partial curve, poor fit]
O=C(Nc1cccc(C(F)(F)F)c1)c1cc2ccc3cccnc3c2[nH]1 22.4 µM [inhibitor, single point]
Cc1c(NC(=O)C(C)OC(=O)c2cccc([N+](=O)[O-])c2)c(=O)n(-c2ccccc2)n1C (stereo not given) 0.794 µM [inhibitor, partial curve, poor fit]
CC1(C)CCC2=C(O1)c1ccccc1C(=O)C2=O 10 µM [inhibitor, partial curve] and 15.8 µM [inhibitor, partial curve] and 31.6 µM [inhibitor, partial curve]
BrC(/C=C\c1ccccc1)=N/Nc1nc(N2CCOCC2)nc(N2CCOCC2)n1 44.7 µM [inhibitor, single point]
O=C(Nc1cccc(Cl)c1)c1cc2c(=O)[nH]c3ccccc3c2s1 25.1 µM [inhibitor, partial curve]
Cc1ccccc1C(=O)Nc1cccc(NC(=O)c2ccc(-c3ccc(Br)cc3)o2)c1 31.6 µM [inhibitor, single point]
CCN(CC)c1ccc2cc(C(N)=O)/c(=N\NC(=O)c3ccncc3)oc2c1 15.8 µM [activator, partial curve]
COc1cccc(C(=O)CSc2nnc(-c3cc(OC)cc(OC)c3)o2)c1 8.91 µM [inhibitor, single point]
C=C(C)CNC(=S)NNC(=O)CCn1c2ccc(Cl)cc2c2cc(Cl)ccc21 10 µM [inhibitor, partial curve]
Cc1cc(C)nc(NC(C)(C)C(=O)O)n1 22.4 µM [inhibitor, single point]
O=C(c1ccccn1)c1cc2ccccc2n1S(=O)(=O)c1ccccc1 1.78 µM [inhibitor, single point]
Cc1cccc(C(=O)Oc2ccc(/C=N/NC(=O)Cc3ccc([N+](=O)[O-])cc3)cc2)c1 7.94 µM [inhibitor, full curve]
COc1ccc(S(=O)(=O)N(CC(=O)NCCCN(C)C)c2ccc(C)cc2)cc1OC 39.8 µM [inhibitor, single point]
CN(C)S(=O)(=O)c1cccc(NC(=O)c2cc3c(=O)n4ccccc4nc3s2)c1 5.01 µM [inhibitor, single point]
Cc1ccc2sc(NC(=O)c3ccc4c(c3)OCCO4)nc2c1C 11.2 µM [inhibitor, partial curve, poor fit]
O=C1/C(=C/c2ccccc2[N+](=O)[O-])COc2ccccc21 10 µM [inhibitor, partial curve]
COCCCNc1oc(-c2ccc(COc3ccc(Cl)cc3)o2)nc1C#N 0.562 µM [activator, full curve, poor fit]
O=C(Cn1nnc(-c2ccccc2Cl)n1)Nc1ccc(Br)cc1 25.1 µM [inhibitor, partial curve]
O=C(CSc1ccc(Cl)cc1)Nc1nnc(-c2cccc([N+](=O)[O-])c2)s1 3.55 µM [inhibitor, single point]
Cc1c2ccccc2c(CSC(=N)N)c2ccccc12 17.8 µM [inhibitor, partial curve]
CC1=Nc2nc(N3CCCCC3)c(C#N)c3c4c(nc(c23)N1)N(c1ccc(C(C)C)cc1)C(=O)C4 28.2 µM [inhibitor, single point]
CCOc1ccc(N2C(=O)CS/C2=C(\C(Cl)=C(Cl)Cl)[N+](=O)[O-])cc1 31.6 µM [inhibitor, single point]
CCOC(=O)c1ccc(NC(=O)CCc2nc(-c3ccc(C)cc3)no2)cc1 39.8 µM [inhibitor, single point]
Cc1ccc(NC(=O)CCc2c(C)nc3cc(-c4ccccc4)nn3c2C)cc1F 8.91 µM [inhibitor, full curve]
COc1ccc(NC(=O)CSc2nnc(-c3cccs3)n2-c2ccccc2)cc1 25.1 µM [inhibitor, single point]
CCCCNC(c1ccccc1)c1ccncc1 (stereo not given) 3.55 µM [inhibitor, single point]
Cc1cc(C)c2oc(-c3cccc(NC(=O)COc4ccc([N+](=O)[O-])cc4)c3)nc2c1 28.2 µM [inhibitor, partial curve]
